Test results published in PubChem BioAssay AID1240 (Sanford-Burnham Center for Chemical Genomics, 2008).
The whole screen tested about 50,000 compounds, of which about 800 (1.6%) showed an effect of 50% or more. Some of the results follow.

target: Bcl-2-like protein 10 (Homo sapiens) (UniProt Q9HD36); experiment: TR3 peptide-Bcl-B binding displacers, biochemical primary FP assay, phenotype converters (AID 1240); details: GST-Bcl-B / FITC-TR3 peptide fluorescence polarization; stronger effect = higher value; compound at 3.75 mg/L;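 further: 0% = Bcl-B with tracer peptide and DMSO and 100% = tracer peptide lacking Bcl-B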
UniProt Q9HD36, sequence (Q9HD36 whole entry, looked up): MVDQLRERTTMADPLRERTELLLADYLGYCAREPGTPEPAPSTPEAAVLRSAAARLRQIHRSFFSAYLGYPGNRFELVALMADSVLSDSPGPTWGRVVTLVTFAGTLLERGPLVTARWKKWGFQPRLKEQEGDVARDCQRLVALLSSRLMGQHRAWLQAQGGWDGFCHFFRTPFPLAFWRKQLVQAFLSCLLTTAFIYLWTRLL

Going from `CCn1c2ccccc2c2cc(NC(=O)COc3ccccc3)ccc21` to `C#Cc1cccc(NC(=O)COc2ccccc2OC)c1`, the displacement falls from -1.3% to -2.8%.

Going from `O=C(N/C(=C/c1ccco1)C(=O)N1CCCCC1)c1ccc([N+](=O)[O-])cc1` to `O=C(NCCO)/C(=C\c1ccc(Cl)cc1)NC(=O)c1ccco1`, the displacement falls from 0.7% to -15.2%.

Going from `O=C(CSc1n[nH]c(-c2ccccc2)n1)c1ccc(Br)cc1` to `CCOc1ccccc1-c1nc(SCC(=O)O)n[nH]1`, the displacement falls from 14.7% to 1.7%.

Going from `CCOC(=O)C1=C(C)NC2=C(C(=O)CCC2)C1c1ccc(OCc2cccc(F)c2)c(OC)c1` (stereo not drawn) to `COc1ccc(C(=O)Nc2cc(C)cc(C)n2)cc1OC`, the displacement rises from -2.4% to 0.3%.

Compared with `COc1ccc(NC(=O)c2ccc(CN3CCN(c4ccccc4)CC3)cc2)cc1OC`, `COc1cc(NC(=O)c2ccc(Cl)cc2)c(Cl)cc1NC(=O)C(C)Oc1ccccc1` (stereo not drawn) is higher in displacement: -13.4% for the first, 40.1% for the second.

First: CN(C)c1ccc(C2/C(=C(\O)c3ccc([N+](=O)[O-])cc3)C(=O)C(=O)N2CCCCCC(=O)O)cc1 (stereo not drawn)
Second: COc1ccc(/C(O)=C2\C(=O)C(=O)N(CCc3ccccc3)C2c2ccc(OC)cc2)cc1 (stereo not drawn)
The displacement of the first is higher: 24% for the first, 1% for the second.

Compared with `COc1c(Cl)cc(C(=O)Nc2nc(-c3ccccc3)cs2)cc1Cl`, `COc1ccc(N(CC(=O)Nc2ccccc2Cl)S(C)(=O)=O)cc1Cl` is lower in displacement: 4.6% for the first, 1.1% for the second.

Going from `CC/C(=C/C(=O)c1ccncc1)Nc1ccc(OC)cc1` to `CCOc1ccc(C(=O)Nc2ccc(C)cn2)cc1`, the displacement rises from -4% to 10.6%.

Going from `O=C1S/C(=C\c2ccc(Br)o2)C(=O)N1c1ccc(Cl)c(Cl)c1` to `O=C1OC(c2cccs2)=N/C1=C\c1ccc(-c2ccccc2Cl)o1`, the displacement falls from -3.9% to -12.6%.

Compared with `Cc1ccc(Cc2cnc(NC(=O)c3cccc([N+](=O)[O-])c3)s2)cc1`, `Cc1cc([N+](=O)[O-])ccc1-c1ccc(C(=O)Nc2ccc(N3CCOCC3)cc2)o1` is lower in displacement: 26.3% for the first, -4.8% for the second.

Compared with `COc1cccc(C2C(C(C)=O)=C(O)C(=O)N2CCN2CCNCC2)c1` (stereo not drawn), `O=C(CCCN1C(=O)/C(=C/c2cccc(Br)c2)SC1=S)NCCCN1CCOCC1` is higher in displacement: -12.3% for the first, 14.3% for the second.

Compared with `CCCOc1ccc2nc(C)c(CCC)c(Cl)c2c1`, `CCOc1ccc(OCC)c(S(=O)(=O)NCCCN2CCOCC2)c1` is lower in displacement: -0.7% for the first, -8% for the second.

First: Cc1cc(OCC(=O)Nc2sc3c(c2C#N)CCCC3)c(C(C)C)cc1Cl
Second: CCOC(=O)c1c2c(n(C)c1CO)C(=O)C(=O)c1ccc(Br)cc1-2
The displacement of the first is lower: -6.7% for the first, 7.4% for the second.

First: CC(C)(C)NC(=O)/C(=C\c1cccs1)NC(=O)c1cccs1
Second: COc1cc(NC(=O)/C=C/c2ccco2)ccc1NC(=O)c1ccco1
The displacement of the first is higher: -2.3% for the first, -2.4% for the second.

Going from `Cc1cc(=O)n(-c2ccc([N+](=O)[O-])cc2)[nH]1` to `Cc1cc(/C=C2/NC(=S)NC2=O)c(C)n1-c1ccc(C(C)(C)C)cc1`, the displacement rises from 5.7% to 8.6%.

Going from `COC(=O)c1ccc(OCC(O)CN(Cc2ccccc2)Cc2ccccc2)cc1` (stereo not drawn) to `CCN(CC)C(=O)c1ccc(CN(c2ccc(OC)cc2)S(=O)(=O)c2ccccc2)cc1`, the displacement falls from 2.9% to -6.5%.

First: O=C(C(c1ccccc1)c1ccccc1)N1CCN(Cc2ccco2)CC1
Second: CCC(C(=O)Nc1nc2ccccc2s1)c1ccccc1 (stereo not drawn)
The displacement of the first is lower: -6.6% for the first, 2.3% for the second.

Going from `CC(=O)NC1=NC(=O)/C(=C\c2cccc(F)c2)S1` to `O=C1N=C(N2CCCCC2)S/C1=C\c1ccc2c(c1)OCO2`, the displacement rises from -29.1% to -1.7%.

First: Cc1sc2nc(SCCCC(=O)NCCO)[nH]c(=O)c2c1C
Second: Cc1cccc(N2C(=O)c3ccc(C(=O)Nc4cccc(O)c4)cc3C2=O)c1C
The displacement of the first is lower: -0.1% for the first, 16.8% for the second.

Going from `COc1ccc(-c2nnc(NC(=O)c3ccco3)s2)cc1` to `Cc1ccc2oc(C(=O)NCc3ccccc3)c(C)c2c1`, the displacement falls from 9.8% to -9.8%.

Going from `CC(=O)c1c(C)oc2c(Br)cc(NS(=O)(=O)c3ccccc3)cc12` to `CCN1C(=O)c2cccc3c(NC(=O)c4ccc(S(=O)(=O)N(C)C)cc4)ccc1c23`, the displacement rises from -2% to 84.1%.

First: CCOC(=O)c1ccccc1N(C(=O)C(F)(F)F)C1C=CS(=O)(=O)C1 (stereo not drawn)
Second: CCOC(=O)c1ccc(-c2ccc(C(=O)Nc3cccc(NC(=O)c4ccccc4C)c3)o2)cc1
The displacement of the first is higher: -3.1% for the first, -17% for the second.

Compared with `O=C1NC(=S)N/C1=C/c1cccc(OCc2ccccc2)c1`, `CC(=O)C1=C(O)C(=O)N(c2nc3ccccc3s2)C1c1ccccc1Cl` (stereo not drawn) is lower in displacement: 1.2% for the first, -4.1% for the second.

Compared with `COc1ccc(/C(O)=C/C(=O)C(F)(F)F)cc1`, `COc1ccc(C(C)=O)cc1N1C(=O)C=CC1=O` is higher in displacement: 5.8% for the first, 9.2% for the second.

Going from `Cc1ccc(S(=O)(=O)/N=C2/NC(=O)/C(=C/c3ccco3)S2)cc1` to `CCN1C(=O)/C(=C\c2ccccc2C)SC1=S`, the displacement falls from 33.6% to 4.3%.

Compared with `Cc1nn(-c2ccccc2)c2c1C(c1c(O)ccc3ccccc13)C(C#N)=C(N)O2` (stereo not drawn), `COc1ccc(CNC(=O)CN(c2ccccc2)S(=O)(=O)c2ccccc2[N+](=O)[O-])cc1` is lower in displacement: 8.2% for the first, 5.3% for the second.

`CC1CN(c2ccc([N+](=O)[O-])cc2Cl)CC(C)N1/C(=N\O)c1nonc1N` (stereo not drawn) gave a displacement of 3.6%.
